Publication PMC9911399, “Two distinct binding modes provide the RNA-binding protein RbFox with extraordinary sequence specificity”
Changes are numbered by the printed parent chain; changes in the protein carry UniProt numbers. Some of the results follow.

T1: RBFOX1 RRM (Homo sapiens, UniProt Q9NWB1 109-208)
T1 sequence: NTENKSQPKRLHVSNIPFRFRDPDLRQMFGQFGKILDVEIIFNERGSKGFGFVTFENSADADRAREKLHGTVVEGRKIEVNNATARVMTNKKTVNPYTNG

B1: GACGCAA (DNA:RNA)
RNA: GGGAGACCGGAAUUCAGAUUGUCCGACGCAAUUAAAUCCCGUCGUAGCCACCA
DNA 1: CAATCTGAATTCCGGTCTCCC
DNA 2: TGGTGGCTACGACGGGATT
B2: CUCAGGU (DNA:RNA)
RNA: B1 RNA with G25C, A26U, G28A, C29G, A30G, A31U
DNA 1: CAATCTGAATTCCGGTCTCCC
DNA 2: TGGTGGCTACGACGGGATT
B3: GAACAAG (DNA:RNA)
RNA: B1 RNA with C27A, G28C, C29A, A31G
DNA 1: CAATCTGAATTCCGGTCTCCC
DNA 2: TGGTGGCTACGACGGGATT
B4: CUGGAGU (DNA:RNA)
RNA: B1 RNA with G25C, A26U, C27G, C29A, A30G, A31U
DNA 1: CAATCTGAATTCCGGTCTCCC
DNA 2: TGGTGGCTACGACGGGATT
B5: AGGUCCG (DNA:RNA)
RNA: B1 RNA with G25A, A26G, C27G, G28U, A30C, A31G
DNA 1: CAATCTGAATTCCGGTCTCCC
DNA 2: TGGTGGCTACGACGGGATT
B6: CCAAGGC (DNA:RNA)
RNA: GGGAGACCGGAAUUCAGAUUGUCCCCAAGGCUUAAAUCCCGUCGUAGCCACCA
DNA 1: CAATCTGAATTCCGGTCTCCC
DNA 2: TGGTGGCTACGACGGGATT
B7: CGCCCUA (DNA:RNA)
RNA: B1 RNA with G25C, A26G, G28C, A30U
DNA 1: CAATCTGAATTCCGGTCTCCC
DNA 2: TGGTGGCTACGACGGGATT
B8: GACGGUG (DNA:RNA)
RNA: B1 RNA with C29G, A30U, A31G
DNA 1: CAATCTGAATTCCGGTCTCCC
DNA 2: TGGTGGCTACGACGGGATT
B9: ACGGAGC (DNA:RNA)
RNA: B6 RNA with C25A, A27G, A28G, G29A
DNA 1: CAATCTGAATTCCGGTCTCCC
DNA 2: TGGTGGCTACGACGGGATT
B10: GGCGUCU (DNA:RNA)
RNA: B1 RNA with A26G, C29U, A30C, A31U
DNA 1: CAATCTGAATTCCGGTCTCCC
DNA 2: TGGTGGCTACGACGGGATT
B11: CGCAAUA (DNA:RNA)
RNA: B6 RNA with C26G, A27C, G29A, G30U, C31A
DNA 1: CAATCTGAATTCCGGTCTCCC
DNA 2: TGGTGGCTACGACGGGATT
B12: GCUGCCA (DNA:RNA)
RNA: B1 RNA with A26C, C27U, A30C
DNA 1: CAATCTGAATTCCGGTCTCCC
DNA 2: TGGTGGCTACGACGGGATT
B13: AGGCCAG (DNA:RNA)
RNA: B1 RNA with G25A, A26G, C27G, G28C, A31G
DNA 1: CAATCTGAATTCCGGTCTCCC
DNA 2: TGGTGGCTACGACGGGATT
B14: CUGCAAU (DNA:RNA)
RNA: B6 RNA with C26U, A27G, A28C, G29A, G30A, C31U
DNA 1: CAATCTGAATTCCGGTCTCCC
DNA 2: TGGTGGCTACGACGGGATT
B15: CGUUCGU (DNA:RNA)
RNA: B6 RNA with C26G, A27U, A28U, G29C, C31U
DNA 1: CAATCTGAATTCCGGTCTCCC
DNA 2: TGGTGGCTACGACGGGATT
B16: GUCCCGC (DNA:RNA)
RNA: B1 RNA with A26U, G28C, A30G, A31C
DNA 1: CAATCTGAATTCCGGTCTCCC
DNA 2: TGGTGGCTACGACGGGATT
B17: UUUUGUU (DNA:RNA)
RNA: B6 RNA with C25U, C26U, A27U, A28U, G30U, C31U
DNA 1: CAATCTGAATTCCGGTCTCCC
DNA 2: TGGTGGCTACGACGGGATT
B18: CGCUGCC (DNA:RNA)
RNA: B6 RNA with C26G, A27C, A28U, G30C
DNA 1: CAATCTGAATTCCGGTCTCCC
DNA 2: TGGTGGCTACGACGGGATT
B19: AGGUGAU (DNA:RNA)
RNA: B6 RNA with C25A, C26G, A27G, A28U, G30A, C31U
DNA 1: CAATCTGAATTCCGGTCTCCC
DNA 2: TGGTGGCTACGACGGGATT
B20: AUAUCUG (DNA:RNA)
RNA: B6 RNA with C25A, C26U, A28U, G29C, G30U, C31G
DNA 1: CAATCTGAATTCCGGTCTCCC
DNA 2: TGGTGGCTACGACGGGATT
B21: AGUCUAA (DNA:RNA)
RNA: B1 RNA with G25A, A26G, C27U, G28C, C29U
DNA 1: CAATCTGAATTCCGGTCTCCC
DNA 2: TGGTGGCTACGACGGGATT
B22: GUGUUGU (DNA:RNA)
RNA: B6 RNA with C25G, C26U, A27G, A28U, G29U, C31U
DNA 1: CAATCTGAATTCCGGTCTCCC
DNA 2: TGGTGGCTACGACGGGATT
B23: UAUAGAC (DNA:RNA)
RNA: B6 RNA with C25U, C26A, A27U, G30A
DNA 1: CAATCTGAATTCCGGTCTCCC
DNA 2: TGGTGGCTACGACGGGATT
B24: AUAGCUG (DNA:RNA)
RNA: B1 RNA with G25A, A26U, C27A, A30U, A31G
DNA 1: CAATCTGAATTCCGGTCTCCC
DNA 2: TGGTGGCTACGACGGGATT
B25: UGGCUGU (DNA:RNA)
RNA: B6 RNA with C25U, C26G, A27G, A28C, G29U, C31U
DNA 1: CAATCTGAATTCCGGTCTCCC
DNA 2: TGGTGGCTACGACGGGATT
B26: GUUGCCA (DNA:RNA)
RNA: B1 RNA with A26U, C27U, A30C
DNA 1: CAATCTGAATTCCGGTCTCCC
DNA 2: TGGTGGCTACGACGGGATT
B27: AGCUAGG (DNA:RNA)
RNA: B6 RNA with C25A, C26G, A27C, A28U, G29A, C31G
DNA 1: CAATCTGAATTCCGGTCTCCC
DNA 2: TGGTGGCTACGACGGGATT
B28: AUGGACU (DNA:RNA)
RNA: B1 RNA with G25A, A26U, C27G, C29A, A30C, A31U
DNA 1: CAATCTGAATTCCGGTCTCCC
DNA 2: TGGTGGCTACGACGGGATT
B29: UCACUAU (DNA:RNA)
RNA: B6 RNA with C25U, A28C, G29U, G30A, C31U
DNA 1: CAATCTGAATTCCGGTCTCCC
DNA 2: TGGTGGCTACGACGGGATT
B30: UGCCUCU (DNA:RNA)
RNA: B1 RNA with G25U, A26G, G28C, C29U, A30C, A31U
DNA 1: CAATCTGAATTCCGGTCTCCC
DNA 2: TGGTGGCTACGACGGGATT
B31: CCAGUGC (DNA:RNA)
RNA: B6 RNA with A28G, G29U
DNA 1: CAATCTGAATTCCGGTCTCCC
DNA 2: TGGTGGCTACGACGGGATT

Target: T1, RBFOX1 RRM
Test: EMSA; HiTS-Eq, 1 nM pool, 10 min; buffer printed only for the single-RNA assays: 10 mM Tris pH 7.5, 150 mM NaCl, 3.4 mM EDTA, 0.001% NP-40, 30 C
Settings: tags: His6 N-terminal (pET28a); label: 5' 32P
Procedure, shortened: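 Relative association constants, normalised to the cognate motif, were derived by comparing read counts of each RNA species with those of the control reaction. The RNA sequenced was the free fraction, separated by 8% native PAGE after a 10 min equilibration in 50 µL of 1 nM 5′-radiolabelled RNA (7 randomized nucleotides) with increasing concentrations of purified wild-type or mutant RbFox RRM.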

| Binder | binding signal |
| --- | --- |
| B1 | 0.00969 KA relative to UGCAUGU |
| B2 | 0.0115 KA relative to UGCAUGU |
| B3 | 0.00774 KA relative to UGCAUGU |
| B4 | 0.0204 KA relative to UGCAUGU |
| B5 | 0.0111 KA relative to UGCAUGU |
| B6 | 0.00602 KA relative to UGCAUGU |
| B7 | 0.007 KA relative to UGCAUGU |
| B8 | 0.0233 KA relative to UGCAUGU |
| B9 | 0.0114 KA relative to UGCAUGU |
| B10 | 0.0147 KA relative to UGCAUGU |
| B11 | 0.00289 KA relative to UGCAUGU |
| B12 | 0.0131 KA relative to UGCAUGU |
| B13 | 0.0129 KA relative to UGCAUGU |
| B14 | 0.013 KA relative to UGCAUGU |
| B15 | 0.0195 KA relative to UGCAUGU |
| B16 | 0.0018 KA relative to UGCAUGU |

| Binder | binding signal |
| --- | --- |
| B17 | 0.0256 KA relative to UGCAUGU |
| B18 | 0.016 KA relative to UGCAUGU |
| B19 | 0.0113 KA relative to UGCAUGU |
| B20 | 0.00553 KA relative to UGCAUGU |
| B21 | 0.00296 KA relative to UGCAUGU |
| B22 | 0.0196 KA relative to UGCAUGU |
| B23 | 0.0084 KA relative to UGCAUGU |
| B24 | 0.00933 KA relative to UGCAUGU |
| B25 | 0.0395 KA relative to UGCAUGU |
| B26 | 0.0162 KA relative to UGCAUGU |
| B27 | 0.018 KA relative to UGCAUGU |
| B28 | 0.00866 KA relative to UGCAUGU |
| B29 | 0.000415 KA relative to UGCAUGU |
| B30 | 0.0154 KA relative to UGCAUGU |
| B31 | 0.0103 KA relative to UGCAUGU |
